Whole data set: some 33,000 sequences, median “E-score (-0.5 to 0.5)” near -0.056, cut for the highest 2% near 0.38. The list shows a part of the results.
What follows are sequences tested against Stb4 (UniProt P50104) (assay: PBM E-score (8-mer binding enrichment) (E-score (-0.5 to 0.5)); higher = stronger / more preferred TF binding; most listed sequences are background and not binding sites). Conditions: protein concentration: 200 nM; construct: GST-DNA-binding domain.
Procedure, shortened: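 Full-length yeast transcription factors or their DNA-binding domains, GST-tagged and expressed with PURExpress, were applied at about 100-200 nM to universal all-10-mer Agilent arrays. These arrays had been made double-stranded by primer extension on fresh or once-stripped slides. Detection used fluorescent anti-GST, normalisation used masliner, and E-scores for ungapped eight-base words pooled with reverse complements came from the Universal PBM Analysis Suite.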

Row | Sequence | PBM E-score
1 | ACTAACCG | 0.291
2 | TACCTACA | -0.101
3 | AACTTTCC | 0.236
4 | ATCGTAGA | -0.167
5 | TTATCGAA | -0.031
6 | CTAACTCC | 0.0117
7 | CTTACGTA | -0.224
8 | AACGAAAA | -0.251
9 | AACGAGAA | -0.126
10 | TAGTCGGA | 0.405
11 | CCCTTAAA | -0.219
12 | CCCATATC | -0.035
13 | ATTTCCAG | -0.129
14 | GCTTCTAA | -0.186
15 | CGCAACAA | -0.157
16 | AAAACAAC | -0.191
17 | ATTGCTTC | 0.103
18 | AAAATAAG | -0.152
19 | CCTCCATC | -0.155
20 | CAGGTTGA | -0.224
21 | CACATAGG | -0.208
22 | GCGCCTCA | 0.0897
23 | CGAACGCA | 0.113
24 | AACCGGCA | 0.23
25 | CCATGCAG | -0.267

Row | Sequence | PBM E-score
26 | ATCGCGGC | 0.128
27 | CACTCAAG | -0.372
28 | ACATTTCT | 0.061
29 | AGGGCAAC | -0.0754
30 | GCTTAGAA | -0.15
31 | AATCCATC | -0.12
32 | CTGTAGCA | -0.267
33 | CTGGTTAC | -0.21
34 | ATCTTAAT | -0.132
35 | GGCTCGGA | 0.466
36 | CAAGCGAA | -0.201
37 | TCGGCCCA | 0.281
38 | ATTTGGGG | -0.0633
39 | CAAAGTTA | -0.0966
40 | CCTTAGTC | -0.155
41 | AGCAACTA | -0.0935
42 | GAGGCGAC | -0.175
43 | GGTAGGGA | -0.0824
44 | AAGGCCGG | 0.19
45 | TCGTTACA | -0.149
46 | AGAAACAC | -0.156
47 | CCCGCTAC | 0.0681
48 | ACTTACAT | -0.117
49 | GACGTCAC | -0.142
50 | AAAAGGAT | -0.125

Row | Sequence | PBM E-score
51 | ACCATAAC | -0.0691
52 | CCTCTGTC | -0.201
53 | CACGTAAA | -0.213
54 | GAGTTCCA | -0.0286
55 | AGCGTGCC | 0.107
56 | CTCAGTAC | -0.0466
57 | ACTGGCTA | -0.0919
58 | CGTTTCTC | 0.0825
59 | CGCCCCAA | 0.0104
60 | GCTGTCCC | -0.0389
61 | AGGAGTAG | -0.0742
62 | AGATAGGA | -0.158
63 | ACATCGAA | -0.132
64 | AGGACCAA | -0.016
65 | CCACCTAC | -0.246
66 | CATAAAAG | -0.16
67 | AACTCCAA | -0.255
68 | CAACAAGA | -0.17
69 | GGGCGGGA | 0.286
70 | AGCGTTTG | -0.162
71 | CGGAGTGC | 0.238
72 | ACAGGGGT | -0.354
73 | AGCAGCAA | -0.201
74 | AGGATCGC | -0.129
75 | CGAGTACA | 0.113

Row | Sequence | PBM E-score
76 | GCAGGCAC | -0.175
77 | ACGACCGT | -0.276
78 | ACCAACAC | -0.239
79 | CCGTCCAA | 0.17
80 | AGCTGCAC | 0.0235
81 | GACTCCAC | -0.156
82 | ACTACCCT | -0.0381
83 | ACCCTTAA | -0.064
84 | CTAAGAAA | -0.0881
85 | TCGGGCCA | 0.3
86 | AACTCACA | -0.139
87 | CCAACCAC | -0.102
88 | ACTCTTTG | -0.218
89 | ACCCCAGC | -0.0907
90 | CCCGACAG | 0.26
91 | ATTACGAA | -0.0192
92 | ACGCAAAC | -0.297
93 | TATTTTAA | -0.038
94 | CCCATCAG | -0.253
95 | CGGCATAG | 0.22
96 | CCCGTTAG | 0.119
97 | AGGCCGGC | 0.153
98 | ATATGAAT | -0.00726
99 | ATGAACTA | -0.0663
100 | GATGGTGC | -0.191

Row | Sequence | PBM E-score
101 | AGGTGCTA | -0.179
102 | CCCAGCCA | -0.137
103 | ATGTCTAG | 0.0228
104 | CCTCGGTA | 0.38
105 | ATACGTGA | -0.0367
106 | CGCGTTAG | 0.0223
107 | ACCTATGC | -0.12
108 | ACGTCTTC | -0.006
109 | ATAGTACA | -0.102
110 | CGGTGTAG | 0.0483
111 | ACTTGCGC | -0.0787
112 | CCATTCTC | -0.0343
113 | AGCTGCGC | -0.131
114 | TAAATCTA | -0.0375
115 | AGGGAAGG | -0.105
116 | AAGCATCA | 0.0126
117 | ACCACTTC | 0.0776
118 | AACGCAAT | 0.0798
119 | TCTCAAGA | -0.148
120 | AAGAGTAC | -0.0783
121 | CCGCGCCC | 0.151
122 | AATAGAGC | -0.0923
123 | GGCCCGGA | 0.402
124 | GTCTTGGA | -0.15
125 | CGTATGGC | -0.15

Row | Sequence | PBM E-score
126 | GCTCCCGA | 0.41
127 | CGAGGTCA | 0.0536
128 | CAAAATCA | -0.00631
129 | GAGCGCGA | 0.0509
130 | CACGGAAG | 0.36
131 | AACGTAGC | -0.189
132 | ATGACTTA | -0.131
133 | GCTGCTCC | 0.0726
134 | CGCTGTAC | 0.0558
135 | ACCCTTCT | -0.238
136 | TCCGCTAA | 0.167
137 | CGCCGTCA | 0.0103
138 | ACATGGGC | -0.111
139 | CTGGATTA | 0.0706
140 | TCGCTGCA | -0.0472
141 | TTACACAA | -0.0835
142 | CTGTAGAC | -0.147
143 | CGCGCGCG | 0.0877
144 | ATACTCGA | -0.339
145 | AAGACCGC | -0.116
146 | ACCAACTA | -0.2
147 | TCCGGAGA | 0.335
148 | CATCATCG | -0.0416
149 | CCACCTAG | -0.0915
150 | GCTGGGCA | -0.23

Row | Sequence | PBM E-score
151 | TAGGCAGA | -0.139
152 | AGCGTGAA | -0.29
153 | AGGTCCTC | -0.0727
154 | ATTTACGA | -0.0261
155 | GAGTGATC | -0.021
156 | ATCTGACC | 0.104
157 | CGGCTGAC | 0.221
158 | CTTCTCGC | 0.0362
159 | AGCTACAC | -0.191
160 | AGCGAACG | -0.188
161 | CGGTTGCA | 0.0731
162 | ACGAATCG | 0.0102
163 | CGGAGCCG | 0.352
164 | GATACAGA | -0.0482
165 | ATCATGAG | -0.105
166 | GATACCTA | -0.0288
167 | ATTTCGCC | 0.1
168 | CGTTTCTA | 0.029
169 | CCCACGAA | -0.224
170 | CTTAGGAC | -0.279
171 | AGTGTTTG | -0.118
172 | TACTAGCA | -0.0746
173 | TCCAGTAA | -0.176
174 | ACATTTAG | -0.252
175 | TCGATCGA | 0.0717

Row | Sequence | PBM E-score
176 | GATAGGTA | 0.044
177 | GCTCGCGA | -0.0996
178 | AATCCTGG | -0.0647
179 | CGCCGTGC | 0.0279
180 | CATGCCAG | -0.0883
181 | GAAGGTGC | 0.0841
182 | GTTCTCTA | 0.0214
183 | CGCTTAGA | -0.0742
184 | GATATCTA | -0.0905
185 | CATCGCCA | -0.0625
186 | AAACCCTT | -0.095
187 | AACTGGCC | -0.0271
188 | CCAAGATA | -0.0753
189 | AGCGTTAT | -0.193
190 | ACGATGTC | -0.2
191 | TGTTAGAA | -0.217
192 | ACACCTAT | -0.116
193 | GGCTGGGA | 0.0024
194 | GTATAAAA | 0.261
195 | GCCTCTCA | 0.0652
196 | CATCCCGA | 0.401
197 | GGTTTCAC | -0.0809
198 | GTAACTTA | -0.0954
199 | TCGTTAGA | -0.0659
200 | ACAACATG | -0.135

Row | Sequence | PBM E-score
201 | AGTTCTAT | -0.0732
202 | ATGCGGAG | 0.0793
203 | ACGAGTGA | -0.148
204 | CTGTTGGC | -0.207
205 | CCGTGAGG | 0.0781
206 | CGATACTC | 0.065
207 | CCCAGGCA | -0.207
208 | AACGGCCG | 0.208
209 | AACCTCTC | -0.113
210 | AGACGTAC | -0.0194
211 | CAGAAGGG | -0.24
212 | ACGCCACG | -0.115
213 | GACACACA | -0.118
214 | ATCCGCCC | 0.364
215 | CCGCCAGA | 0.0291
216 | CAGCAGCC | -0.101
217 | AACACCTA | -0.251
218 | CACGCAAC | -0.112
219 | ACGGTCAC | -0.0956
